Experimental data taken from the antibiotic and cytotoxicity screens of Wong et al. (2023).
Some of the results follow.

Legend:
HSkMC = human skeletal muscle cells; test: cytotoxicity call (relative viability < 0.9); conditions: 10 µM
HepG2 = test: cytotoxicity call (relative viability < 0.9); conditions: 10 µM
S. aureus RN4220 = test: growth inhibition call (relative growth <= 0.2); conditions: 50 µM

| SMILES | cytotoxicity call (HSkMC) | cytotoxicity call (HepG2) | growth inhibition call (S. aureus RN4220) |
| --- | --- | --- | --- |
| CC(=O)[C@]1(O)Cc2c(O)c3c(c(O)c2[C@@H](O[C@@H]2C[C@@H](N)[C@H](O)[C@@H](C)O2)C1)C(=O)c1c(O)cccc1C3=O | active | active | active |
| C[C@@H]1CN([C@@H](C)CO)C(=O)c2cc(NC(=O)Nc3ccc(C(F)(F)F)cc3)ccc2O[C@H]1CN(C)Cc1ccncc1 | inactive | active | inactive |
| C[C@@H]1CCCCO[C@@H](CN(C)Cc2ccc(C(F)(F)F)cc2)[C@H](C)CN([C@@H](C)CO)C(=O)c2cc(N(C)C)ccc2O1 | inactive | inactive | inactive |
| CNc1ccccc1C(=O)N1CCc2c([nH]c3ccccc23)C1=O | inactive | inactive | inactive |
| C[C@H]1CN([C@@H](C)CO)C(=O)c2c(c3ccccc3n2C)-c2ccccc2CO[C@H]1CN(C)Cc1cccc2c1OCCCO2 | inactive | inactive | inactive |
| C[C@H](CO)N1C[C@H](C)[C@H](CN(C)C(=O)C2CCOCC2)Oc2cc(-c3ccc(C(=O)N(C)C)cc3)ccc2S1(=O)=O | inactive | inactive | inactive |
| C=CCOC(=O)[C@H]1[C@@H]2C(=O)O[C@@H](c3ccccc3)[C@@H](c3ccccc3)N2[C@@H](c2ccc(OCCOC(=O)[C@H]3C[C@H]4C(=O)N5CCC[C@H]5C(=O)N4[C@H]3c3ccc(O)cc3)cc2)[C@]12C(=O)Nc1ccc(I)cc12 | inactive | inactive | inactive |
| Cc1noc(C)c1S(=O)(=O)N(C)C[C@H]1OCCCC[C@H](C)Oc2ccc(N(C)C)cc2C(=O)N([C@@H](C)CO)C[C@@H]1C | inactive | inactive | inactive |
